# Results published in PubChem BioAssay AID504832 (National Center for Advancing Translational Sciences (NCATS), 2011).
# The whole screen tested about 310,000 compounds, of which about 18,000 (5.8%) were called active. Inconclusive results, whose numbers are uncertain, are shown with a selection of clear calls. The call rests on the fitted dose curve; in most records, active means well fitted inhibition curve with a large enough effect; inconclusive means small, poorly fitted or top-dose-only effect, or another doubt; inactive means no such curve, though single readings can be large or run the other way. Potencies of inconclusive entries are left out as doubtful fits.
# Experiment: Primary qHTS for delayed death inhibitors of the malarial parasite plastid, 48 hour incubation
# Settings: P. falciparum luciferase growth in erythrocytes; series mostly up to 28.7 µM; activity change, negative = inhibition: at the top concentration
# How it was run: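 First compound was added to culture medium, then infected red cells at 0.1% parasitemia and 2% hematocrit (final). After incubation at 37 C under 5% CO2, luciferase detection reagent was dispensed and light output recorded.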
# On the % scale 0 is the no-effect control and ±100 the full control effect; potency means the concentration at half of the fitted maximal effect; tags describe the fitted curve by direction and shape.
Compound,Potency,"activity change, negative = inhibition"
Cc1ccc(-c2csc(N3CCN(CCCn4c(-c5ccncc5)nc5ccccc54)CC3)n2)cc1,"inconclusive [inhibitor, full curve, poor fit]",–
Cn1c(Sc2ccc(Br)cc2)c(C=O)c2ccccc21,"inconclusive [inhibitor, partial curve]",–
CC(C)(C)NC(=O)CN(C(=O)C1CSC(=O)C1)c1ccccc1F (stereo not given),–,inactive: 2.32%
COCCN(CC(=O)Nc1cccc(C)c1C)C(=O)c1ccc(S(=O)(=O)N2CCOCC2)cc1,"inconclusive [inhibitor, single point]",–
CC1CCc2cc(F)cc3c(O)c(C(=O)NCc4ccco4)c(=O)n1c23 (stereo not given),–,inactive: 2.44%
CN(C)c1ccc(/C=N/NC(=O)c2ccn(C)n2)cc1,–,inactive: 190%
CC(c1ccon1)N(C)C(=O)CCc1nnc(Cc2ccc(-c3ccccc3)cc2)o1 (stereo not given),"inconclusive [inhibitor, single point]",–
N#C/C(=C/C=C/c1ccccc1)C(=O)Nc1ccccc1,active: 3.29 µM,–
O=C(NCc1ccco1)/C(=C\C=C\c1ccccc1)NC(=O)c1ccccc1Br,"inconclusive [inhibitor, partial curve]",–
O=C(c1ccc(NS(=O)(=O)c2ccc3[nH]c(=O)[nH]c3c2)cc1)N1CCCC(C(F)(F)F)C1 (stereo not given),–,inactive: -22.6%
O=C(c1ccc(Oc2ccc([N+](=O)[O-])cc2Cl)cc1)N1CCCC1,"inconclusive [inhibitor, single point]",–
O=c1c2ccccc2c(=O)n2n1Cc1ccccc1C2,–,inactive: 54.3%
O=C(N/N=C/c1ccccn1)c1cc(-c2ccc3ccccc3c2)n[nH]1,"inconclusive [inhibitor, single point]",–
CC/C(=N\NC(=O)c1cc(C)nc2ccccc12)c1ccc(C)s1,–,inactive: -3.54%
CCCOc1cccc(C(=O)NC(=S)Nc2cccc(NC(=O)c3ccccc3Cl)c2)c1,–,inactive: 1.55%
CCc1ccc(S(=O)(=O)N2c3ccc(C)cc3C3CN(C)CCC32)cc1 (stereo not given),active: 10.4 µM,–
Cc1cc([N+](=O)[O-])c2ccccc2[n+]1[O-],"inconclusive [inhibitor, partial curve]",–
CCCCn1c(=O)c(C(=O)NCc2ccc(Cl)cc2)c(O)c2ccccc21,"inconclusive [inhibitor, single point]",–

Compound,Potency,"activity change, negative = inhibition"
O=C(CC1C(=O)NCCN1CCCc1ccccc1)NCCc1ccccc1Cl (stereo not given),active: 13.1 µM,–
Clc1ccc(C(Cl)(Cl)Cl)c(Cl)c1,–,inactive: 3.27%
Cc1ccccc1C(=O)N1CCN(c2ccc(NC(=O)Cc3ccccc3)cc2)CC1,"inconclusive [inhibitor, partial curve]",–
Cc1cc(Br)ccc1NC(=O)CN(C)C(=O)c1ccc2ccccc2n1,–,inactive: 49%
c1ccc(Nc2c(-c3ccco3)nc3ccccn23)cc1,–,inactive: 3.93%
Cc1ccc(NC(=O)/C(=C/c2ccc([N+](=O)[O-])cc2)NC(=O)c2ccccc2)cc1,"inconclusive [inhibitor, partial curve]",–
CCc1nnc(NC(=O)CCC(=O)N2CCN(Cc3ccc(Cl)cc3)CC2)s1,"inconclusive [inhibitor, single point]",–
COc1ccc(CNC(=O)c2cccc(S(=O)(=O)N3CCN(c4ccc(F)cc4)CC3)c2)cc1,"inconclusive [inhibitor, single point]",–
CCCOc1ccc(-c2nc(N3CCN(CC)CC3)c3ccccc3n2)cc1,active: 10.4 µM,–
COc1cc(/C=N/NC(=O)CCN2CCN(c3ccccc3)CC2)cc(OC)c1OC,"inconclusive [inhibitor, partial curve]",–
Cc1[nH]c2ccccc2c1C(=O)COC(=O)c1ccc([N+](=O)[O-])s1,"inconclusive [inhibitor, single point]",–
CN(C)/C=C/C(=O)c1ccncc1,–,inactive: -1.78%
O=C(C1CCC(CNc2nc(=S)[nH]c3ccccc23)CC1)N1CCN(c2ccc(F)cc2)CC1 (stereo not given),"inconclusive [inhibitor, single point]",–
CC(C)OCCCNc1nc(-c2ccccc2)nc2ccccc12,"inconclusive [inhibitor, partial curve, poor fit]",–
O=C(NCC1CCCO1)c1ccc(COc2ccccc2)o1 (stereo not given),–,inactive: 14.9%
COc1ccc(-c2cc(C(=O)N3CCOCC3)no2)cc1,–,inactive: 157%
CCOC(=O)Cc1csc(NC(=O)COc2ccc3c(c2)CCC3)n1,"inconclusive [inhibitor, single point]",–
